The test system of one assay is HSkMC. Description: cytotoxicity call (relative viability < 0.9). As to conditions: 10 µM.
The next assay deals with HepG2. The assay is described as follows: cytotoxicity call (relative viability < 0.9). The settings on record: 10 µM.
In a further assay the test system is S. aureus RN4220. The assay is described as follows: growth inhibition call (relative growth <= 0.2). As to conditions: 50 µM.

Some of the results follow.

This passage reports cytotoxicity call and growth inhibition call results from the antibiotic and cytotoxicity screens of Wong et al. (2023).

For the compound `Nc1cc(-c2ccncc2)c[nH]c1=O`, the cytotoxicity call in the assay with HSkMC and in the assay with HepG2 was “inactive” each time. For the same compound, the growth inhibition call with S. aureus RN4220 was “inactive”.

As to `Cc1sc(/N=C/c2ccc(Cl)c(Cl)c2)c(C#N)c1C`, the cytotoxicity call in the assay with HSkMC and in the assay on HepG2 was “inactive” each time. Moreover, the growth inhibition call in the assay with S. aureus RN4220 was “inactive”.

Turning to `CCC(=C(c1ccccc1)c1ccc(OCCN(C)C)cc1)c1ccccc1.O=C(O)CC(O)(CC(=O)O)C(=O)O`, the cytotoxicity call in the assay on HSkMC and with HepG2 was “inactive” in each case. Besides, the growth inhibition call in the assay on S. aureus RN4220 was “active”.

For `COc1ccc(NC(=O)Nc2ccc3c(c2)C(=O)N([C@H](C)CO)C[C@H](C)[C@@H](CN(C)C(=O)c2ccccc2)OCCCC[C@@H](C)O3)cc1`, the cytotoxicity call with HSkMC and in the assay on HepG2 was “inactive” in each case. In the assay with S. aureus RN4220, the growth inhibition call was “inactive”.

Regarding `C[C@@H]1CN([C@@H](C)CO)S(=O)(=O)c2ccc(Br)cc2O[C@@H]1CN(C)C(=O)c1ccccn1`, the cytotoxicity call in the assay on HSkMC (human skeletal muscle cells) and in the assay on HepG2 was “inactive” in each case. The growth inhibition call in the assay on S. aureus RN4220 was “inactive”.

Regarding `CCN(CC)CCOc1ccc2c(c1)C(=O)c1cc(OCCN(CC)CC)ccc1-2`, the cytotoxicity call with HSkMC is “inactive”. Moreover, the cytotoxicity call in the assay on HepG2 is “active”. In addition, the growth inhibition call in the assay with S. aureus RN4220 is “inactive”.

Take `COC(=O)[C@@H](Cc1ccc(-n2cc(COc3ccccc3/C=C(C)/C=C/C(=O)NO)nn2)cc1)N1CC2=C[C@H](C3CC3)n3c(=O)n(C)c(=O)n3[C@@H]2[C@H]1[C@H](O)Cc1ccccc1`: the cytotoxicity call with HSkMC and in the assay on HepG2 was “inactive” throughout. Also, in the assay on S. aureus RN4220, the growth inhibition call is “inactive”.

`COc1ccc(S(=O)(=O)N(C)C[C@H]2OCCCC[C@@H](C)Oc3ccc(NC(=O)Nc4ccc(F)cc4)cc3C(=O)N([C@H](C)CO)C[C@H]2C)cc1`: the cytotoxicity call with HSkMC and with HepG2 was “inactive” throughout. For the same compound, the growth inhibition call in the assay on S. aureus RN4220 was “inactive”.

Regarding `CC(C)(C)N1CC=C[C@@]23O[C@@H]4/C=C\CCCOC(=O)[C@@H]4[C@H]2C(=O)N(CCO)[C@@H]3C1=O`, the cytotoxicity call with HSkMC and with HepG2 was “inactive” each time. In addition, the growth inhibition call in the assay with S. aureus RN4220 is “inactive”.

With `COc1ccccc1NC(=O)N(C)C[C@H]1OCc2ccccc2-c2c(n(C)c3ccccc23)C(=O)N([C@H](C)CO)C[C@H]1C`, the cytotoxicity call in the assay with HSkMC and with HepG2 was “inactive” throughout. The growth inhibition call in the assay on S. aureus RN4220 is “inactive”.

As for `O=C(O)C1(Cn2ccnc2)CC1`, the cytotoxicity call with HSkMC and with HepG2 was “inactive” each time. For the same compound, the growth inhibition call with S. aureus RN4220 is “inactive”.
